# Laboratory results: PubChem BioAssay AID588591 (National Center for Advancing Translational Sciences (NCATS), 2011)
# “And” between values parts separate entries of the source, which are not always exact repeats. Equal values may be shown once. Screen size: about 390,000 compounds; about 4,700 (1.2%) were called active. The inconclusive results got no clear call from the source; some entries with a clear call stand among them for comparison. Calls follow the shape of the dose curve; as a rule, active = well fitted inhibition curve with a large enough effect; inconclusive = small, poorly fitted or top-dose-only effect, or another doubt; inactive = no such curve, though single readings can be large or run the other way. Potencies of inconclusive entries are doubtful fits and often do not repeat.
# Molecular target: DNA polymerase eta (Homo sapiens) (UniProt Q9Y253)
# UniProt Q9Y253, sequence (Q9Y253 whole entry, looked up): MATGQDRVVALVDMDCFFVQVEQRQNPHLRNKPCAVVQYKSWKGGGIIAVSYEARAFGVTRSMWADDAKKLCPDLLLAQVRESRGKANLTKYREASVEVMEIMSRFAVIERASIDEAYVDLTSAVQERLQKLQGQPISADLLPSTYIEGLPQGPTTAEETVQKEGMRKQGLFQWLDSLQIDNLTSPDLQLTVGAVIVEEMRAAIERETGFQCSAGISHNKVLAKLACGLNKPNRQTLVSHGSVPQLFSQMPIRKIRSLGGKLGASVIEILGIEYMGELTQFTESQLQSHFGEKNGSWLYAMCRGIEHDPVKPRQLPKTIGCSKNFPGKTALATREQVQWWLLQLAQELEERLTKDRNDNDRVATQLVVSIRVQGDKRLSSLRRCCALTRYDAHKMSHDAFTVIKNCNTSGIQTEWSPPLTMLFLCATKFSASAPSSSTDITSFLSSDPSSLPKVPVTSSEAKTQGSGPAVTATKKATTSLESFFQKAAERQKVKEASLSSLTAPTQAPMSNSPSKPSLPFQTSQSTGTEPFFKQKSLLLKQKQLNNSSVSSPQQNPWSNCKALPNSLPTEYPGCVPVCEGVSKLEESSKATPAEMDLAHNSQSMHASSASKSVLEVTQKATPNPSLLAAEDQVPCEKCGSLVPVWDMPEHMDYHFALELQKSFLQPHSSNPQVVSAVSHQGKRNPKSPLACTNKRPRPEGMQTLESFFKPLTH
# Experiment: qHTS for Inhibitors of Polymerase Eta
# Details: recombinant Pol eta, fluorescent DNA replication assay; series mostly up to 114 µM
# In short: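 Pol eta at 10 nM preincubated with compounds 15 min at room temperature; reaction started with fluorescent substrate (50 nM final) and read kinetically at 0 and 10 min.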
# Potency is read from the fitted curve at half-maximal effect; tags tell the direction and shape of the fitted curve.
row,Structure (SMILES),Potency
1,CCN1C(=O)C(=Cc2ccc(C)s2)C(=O)N(CC)C1=S,active: 25.1 µM
2,C=CCn1c(O)c(C=NCCCOc2ccc(CC)cc2)c(=O)[nH]c1=S,inactive
3,COCCOC(=O)c1c(N)n(Cc2ccco2)c2nc3ccccc3nc12,"inconclusive: 28.2 µM [inhibitor, partial curve]"
4,O=C1NC(=O)N(c2cccc(Cl)c2)C(=O)/C1=C\c1ccc(Sc2nc3ccccc3[nH]2)o1,active: 17.8 µM
5,COc1cc(C(c2c(C)[nH]n(-c3ccccc3)c2=O)c2c(C)[nH]n(-c3ccccc3)c2=O)cc(OC)c1OC,inactive
6,O=C1NC(=O)N(Cc2ccco2)C(=O)/C1=C\c1ccc(-c2ccc(F)cc2)o1,active: 25.1 µM
7,CCOP(=O)(OCC)/C(C#N)=C/c1ccoc1,"inconclusive: 39.8 µM [inhibitor, single point]"
8,O=C1NC(=O)N(Cc2ccccc2)C(=O)/C1=C\C=C\c1ccco1,active: 17.8 µM
9,CCS(=O)(=O)C1=NN2C(=N)/C(=C\c3ccc(OC(=O)c4ccco4)cc3)C(=O)N=C2S1,"inconclusive: 3.55 µM [inhibitor, partial curve, poor fit]"
10,C=CCn1c(CSc2ccccc2[N+](=O)[O-])n[nH]c1=S,active: 12.6 µM
11,Cn1cc(C=C2C(=O)NC(=O)NC2=O)c2ccccc21,"inconclusive: 100 µM [inhibitor, single point]"
12,CCNC(=O)N1Cc2ccccc2-n2nncc2C1,inactive
13,O=c1cc(-c2ccc(O)c(O)c2)oc2cc(O)cc(O)c12,active: 3.16 µM
14,C[N+](C)(C)c1ccccc1,inactive
15,CC(=O)c1c(COC(=O)c2cccnc2)nc2ccccc2[n+]1[O-],"inconclusive: 20 µM [inhibitor, partial curve, poor fit]"
16,O=C(O)c1ccc([N+](=O)[O-])c([N+](=O)[O-])c1,"inconclusive: 22.4 µM [inhibitor, full curve]"
17,O=C(O)C1(Br)CC12c1ccccc1-c1ccccc12 (configuration not stated),"inconclusive: 31.6 µM [inhibitor, single point]"
18,CCCc1cc(=O)oc2cc(OCc3ccc(C(=O)O)o3)ccc12,"inconclusive: 79.4 µM [inhibitor, partial curve]"
19,O=C1NC(=O)C(=Cc2coc3ccc(O)cc3c2=O)C(=O)N1,"inconclusive: 50.1 µM [inhibitor, partial curve]"
20,OC1(CN2CCOCC2)C2CC3CC(C2)CC1C3 (configuration not stated),"inconclusive: 100 µM [inhibitor, partial curve, poor fit]"
21,CC[N+](C)(CC)CCCCOc1ccc2c(c1)C(=O)c1cc(OCCCC[N+](C)(CC)CC)ccc1-2,"inconclusive: 56.2 µM [inhibitor, partial curve, poor fit]"
22,O=c1[nH]c(=S)[nH]c(O)c1/C=C1/C=c2ccccc2=N1,"inconclusive: 79.4 µM [inhibitor, partial curve]"
23,N#Cc1c(Br)n(C2OC(CO)C(O)C2O)c2ncnc(N)c12 (configuration not stated),"inconclusive: 22.4 µM [inhibitor, partial curve, poor fit]"

row,Structure (SMILES),Potency
1,COC(=O)C1=C(c2ccc(F)cc2OCc2ccccc2)C[C@@H]2CC[C@H]1N2C(=O)NCc1ccc([N+](=O)[O-])cc1,"inconclusive: 79.4 µM [inhibitor, partial curve, poor fit]"
2,CCN(CC)P(=O)(NC(=O)C(Cl)(Cl)Cl)N(CC)CC.[Cl-].[Cl-].[Cl-].[Nd+3],"inconclusive: 31.6 µM [inhibitor, single point] and inconclusive: 15.8 µM [inhibitor, partial curve, poor fit]"
3,CC(=O)Nc1ccc2c(c1)CC1(C(=O)N(C)C(=O)N(C)C1=O)C1CCCN21 (configuration not stated),"inconclusive: 3.55 µM [inhibitor, partial curve, poor fit]"
4,O=C(N/N=C/c1c(O)n(CCc2ccccc2)c(=O)[nH]c1=O)c1ccccc1O,inactive
5,CC(C)Oc1ccc(C2C(C#N)=C(N)Oc3c2c(=O)oc2ccccc32)cc1 (configuration not stated),"inconclusive: 11.2 µM [inhibitor, partial curve, poor fit]"
6,CCOc1ccc(N=Cc2c(O)n(C(C)(C)C)c(=O)[nH]c2=O)cc1,"inconclusive: 22.4 µM [inhibitor, partial curve, poor fit]"
7,CN1C(=O)/C(=C\c2ccc(N3CCCCC3)o2)C(=O)NC1=S,inactive
8,CCCCC/C=C\C/C=C\C/C=C\C/C=C\CCCC(=O)NCC(=O)O,active: 0.501 µM
9,NC(=O)c1cn(C2CCCCC2)c2ccccc2c1=O,inactive
10,Cn1c(=O)oc2cc(S(=O)(=O)N3CCc4ccccc43)ccc21,"inconclusive: 79.4 µM [inhibitor, partial curve, poor fit]"
11,O=c1[nH]c(=O)n(Cc2ccco2)c(O)c1C=NCc1ccco1,active: 89.1 µM
12,O=c1[nH]c(=S)n(Cc2ccco2)c(O)c1C=NCc1cccs1,active: 22.4 µM
13,C[C@H]1COC2=C1C(=O)C(=O)c1c2ccc2c1CCCC2(C)C,active: 35.5 µM
14,C=CCSC1=N/C(=C\c2cc(OC)c3c(c2)OCO3)C(=O)S1,"inconclusive: 31.6 µM [inhibitor, partial curve]"
15,COc1ccc(N2C(=O)NC(=O)/C(=C\c3ccc([N+](=O)[O-])s3)C2=O)cc1,active: 17.8 µM
16,CN(C)[C@@H]1C(=O)C(C(N)=O)=C(O)[C@@]2(O)C(=O)C3=C(O)c4c(O)cccc4[C@@](C)(O)C3[C@H](O)C12 (some centres not stated),active: 31.6 µM
17,N#CC1=C(N)Oc2n[nH]c(-c3cccs3)c2C1c1ccco1 (configuration not stated),"inconclusive: 15.8 µM [inhibitor, full curve, poor fit]"
18,c1ccc(C(c2ccccc2)N2CCN(c3ccc4ccccc4n3)CC2)cc1,"inconclusive: 89.1 µM [inhibitor, partial curve, poor fit]"
19,Cc1ccc2c(C)c3ccc4ccccc4c3c[n+]2c1,"inconclusive: 2.82 µM [inhibitor, full curve, poor fit]"
20,O=C(c1ccccc1)c1ccc(N=Nc2c(O)[nH]c(=O)[nH]c2=O)cc1,"inconclusive: 22.4 µM [inhibitor, full curve]"
21,COc1cc2c(cc1O)CC1c3c(cc(O)c(OC)c3-2)CCN1C (configuration not stated),"inconclusive: 28.2 µM [inhibitor, single point]"
22,COc1ccccc1N1C(=O)NC(=O)/C(=C\c2cnn(-c3ccccc3)c2)C1=O,active: 39.8 µM
23,O=C1NC(=O)N(CCC2=CCCCC2)C(=O)/C1=C\c1cccs1,active: 20 µM

row,Structure (SMILES),Potency
1,COc1cccc(-n2c(/C=C/c3ccc(O)c(O)c3)nc3ccccc3c2=O)c1,active: 28.2 µM
2,COc1ccc(N2C(=O)/C(=C/c3cc(C)n(-c4ccc(C)cn4)c3C)C(=O)NC2=S)c(OC)c1,"inconclusive: 79.4 µM [inhibitor, partial curve]"
3,Cc1cccc(-n2c(O)c(/C=N/Nc3nc4c(c(=O)n(C)c(=O)n4C)n3C)c(=O)[nH]c2=S)c1,"inconclusive: 14.1 µM [inhibitor, full curve, poor fit]"
4,O=C1NC(=O)N(Cc2ccco2)C(=O)/C1=C/c1cccn1CCOc1ccccc1Cl,active: 14.1 µM
5,O=c1[nH]c(O)c(/C=C2/C=CC(c3cc(Cl)ccc3Cl)=N2)c(=O)[nH]1,active: 17.8 µM
6,Cc1cnc(C(=O)OCC(=O)N(CC(C)C)C2CCS(=O)(=O)C2)cn1 (configuration not stated),"inconclusive: 35.5 µM [inhibitor, partial curve, poor fit]"
7,C=CCn1c(=O)c(C=Nc2cccc([N+](=O)[O-])c2)c(O)n(CCCC)c1=O,"inconclusive: 28.2 µM [inhibitor, partial curve]"
8,CC(=NCCC1=CCCCC1)c1c(O)n(-c2ccccc2)c(=O)[nH]c1=O,"inconclusive: 89.1 µM [inhibitor, partial curve, poor fit]"
9,C=C1C[C@]2(O)[C@@]3(C)CCC(=O)C(C)(C)C3=C(O)C(=O)[C@@]2(C)[C@@H]2C(=O)O[C@@](C)(C(=O)OC)C(=O)[C@@]12C,"inconclusive: 39.8 µM [inhibitor, partial curve, poor fit]"
10,CCN(CC)C(=O)c1ccc2c(c1)C1C=CCC1C(C(=O)O)N2 (configuration not stated),active: 3.98 µM
11,Cc1nn(-c2ccccc2)c(Cl)c1C1C(C#N)=C(N)Oc2c1c(=O)oc1ccccc21 (configuration not stated),"inconclusive: 8.91 µM [inhibitor, partial curve, poor fit]"
12,COC(=O)C1=C(c2c(C)noc2C)C[C@@H]2CC[C@H]1N2C(=O)NCc1ccc2c(c1)OCO2,inactive
13,O=C1C=CC(=O)C=C1,"inconclusive: 39.8 µM [inhibitor, single point]"
14,CN(C)c1ccc(/C=C/C=C2/C(=O)NC(=O)N(c3ccccc3)C2=O)cc1,"inconclusive: 15.8 µM [inhibitor, full curve, poor fit]"
15,Cc1ccc2c(C)cccc2c1,inactive
16,CCC1(CC(C)c2ccccc2)C(=O)NC(=O)NC1=O (configuration not stated),inactive
17,Cc1ccc(-n2nc3c(N4CCC(C(=O)NCc5ccccc5Cl)CC4)nnc(C)c3c2C)cc1,"inconclusive: 70.8 µM [inhibitor, single point]"
18,O=C1NC(=O)[C@]2(Cc3ccccc3N3CCN(c4ccccc4)CC32)C(=O)N1Cc1ccccc1 (some centres not stated),active: 20 µM
19,CN(C)C(=O)Oc1ccc(Cl)c2ccccc12,inactive
20,CCc1ccc(N2C(=O)NC(=O)/C(=C/c3cccn3CCOc3ccc(C(C)CC)cc3)C2=O)cc1 (configuration not stated),inactive
21,Cc1cc(/C=C2\C(=O)NC(=O)N(c3cccc(F)c3)C2=O)c(C)n1-c1cc(C(=O)O)cc(C(=O)O)c1,active: 10 µM
